The record followed here is the supplement of paper PMC3334620.

The full ranking holds about 33,000 sequences; the median of “E-score (-0.5 to 0.5)” is about -0.012, and the highest 2% start at about 0.29. The list shows a part of the results.

The assay deals with T1, Ybr033w (UniProt P38073).
T1 sequence: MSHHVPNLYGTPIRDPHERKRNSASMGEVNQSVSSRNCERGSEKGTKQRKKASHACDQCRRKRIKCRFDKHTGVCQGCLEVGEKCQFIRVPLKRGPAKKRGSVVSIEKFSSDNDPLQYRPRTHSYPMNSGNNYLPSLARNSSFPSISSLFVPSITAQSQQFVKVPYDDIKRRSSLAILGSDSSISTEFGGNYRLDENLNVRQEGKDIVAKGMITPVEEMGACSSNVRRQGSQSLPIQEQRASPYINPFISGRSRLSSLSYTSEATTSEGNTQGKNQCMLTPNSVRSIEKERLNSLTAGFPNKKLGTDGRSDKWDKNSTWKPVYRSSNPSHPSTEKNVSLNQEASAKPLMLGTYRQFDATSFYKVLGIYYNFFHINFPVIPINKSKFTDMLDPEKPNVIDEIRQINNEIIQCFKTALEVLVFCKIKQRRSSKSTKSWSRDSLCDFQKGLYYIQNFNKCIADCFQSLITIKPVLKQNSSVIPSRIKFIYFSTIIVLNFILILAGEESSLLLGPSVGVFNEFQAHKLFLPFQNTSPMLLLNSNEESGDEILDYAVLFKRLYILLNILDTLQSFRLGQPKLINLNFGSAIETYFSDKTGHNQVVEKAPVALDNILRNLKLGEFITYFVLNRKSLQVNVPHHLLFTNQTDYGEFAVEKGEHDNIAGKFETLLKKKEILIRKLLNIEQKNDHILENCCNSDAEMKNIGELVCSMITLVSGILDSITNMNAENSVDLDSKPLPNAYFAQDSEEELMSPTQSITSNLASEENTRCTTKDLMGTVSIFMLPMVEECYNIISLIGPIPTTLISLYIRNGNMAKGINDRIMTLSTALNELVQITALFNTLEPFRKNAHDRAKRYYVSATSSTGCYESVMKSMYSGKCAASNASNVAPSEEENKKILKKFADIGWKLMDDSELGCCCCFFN
The experiment in a line: PBM E-score (8-mer binding enrichment) (E-score (-0.5 to 0.5)); higher = stronger / more preferred TF binding; most listed sequences are background and not binding sites. The following applies: protein concentration: 200 nM; construct: GST-full length. The gist of the method: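 Full-length yeast transcription factors or their DNA-binding domains, GST-tagged and expressed with PURExpress, were applied at about 100-200 nM to universal all-10-mer Agilent arrays. These arrays had been made double-stranded by primer extension on fresh or once-stripped slides. Detection used fluorescent anti-GST, normalisation used masliner, and E-scores for ungapped eight-base words pooled with reverse complements came from the Universal PBM Analysis Suite.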
On to CATGTGAG, for which the “PBM E-score” value is -0.328. Then GCGATAAC, with -0.00105; and AAAGACAT, with -0.058; and TACAAATA, with 0.192. For ATACGTCG the value was 0.0204; for CGACCATA, 0.0381. Consider AGCCCGCT, for which the “PBM E-score” value is -0.271. Then AGACTGAG, with 0.00821. Then GGTATTAA, with 0.166; and AGGGGCAT, with -0.204. For AAAGTTAC the value was 0.224; for CATTTGTA, 0.267. For CGGACCAC, the “PBM E-score” value was 0.0108.

For CGAACTAA, the “PBM E-score” value turned out to be 0.0954. Then ACGGACTG, with -0.194; and CGCCTGCA, with -0.397.

ACGGTCAA: the “PBM E-score” value was 0.162. For CCGATTCG the value was 0.149; for CCTGGGAA, 0.00617. Then ATAACCCG, with -0.00026; and AACGATAA, with 0.115; and CATTACGA, with 0.0351.

For AAAGGATC, the “PBM E-score” value amounted to 0.0664. Then CGTCATCC, with -0.0466; and CCTGATCA, with -0.0707. In the case of AGGACGTC, the “PBM E-score” value is -0.175.

On to AGCAGAGC, for which the “PBM E-score” value was -0.0843. Consider AGCATCTC, for which the “PBM E-score” value was -0.0481. Consider CCTCTAAA, for which the “PBM E-score” value is -0.0537. Regarding ATAAAGGG, the “PBM E-score” value was -0.176. In the case of GCCTTGCA, the “PBM E-score” value is -0.121. For ACAATGCC the value was -0.0228. For GCACAAAA, the “PBM E-score” value came out at 0.218. Then GACTGTAC, with -0.349; and CTCGCAAA, with -0.0546. Consider GTCCCTAA, for which the “PBM E-score” value is -0.144. Then CACCATCG, with -0.291. For ACCCTCTC the value was -0.211. Regarding GTTTAGGA, the “PBM E-score” value is -0.129. Consider ATTGGCGA, for which the “PBM E-score” value was -0.0862. For CTTGGATA the value was 0.0816; for ACCAGTAG, 0.137. For AAGGGTCT the value was -0.178; for AATCACCT, 0.163; for AGAGCGGA, -0.0345.

For ATCTCATC, the “PBM E-score” value worked out at 0.0762. For AGCCTCAT the value was -0.273.

Consider AAGGACTT, for which the “PBM E-score” value was -0.203. On to CATGGTTA, for which the “PBM E-score” value came to 0.156. For AAACTCTC the value was 0.155.

With CGAACCCA, the “PBM E-score” value is -0.118. For AGTGTGAG the value was -0.0322. CTGTACGA: the “PBM E-score” value was 0.0823. Turning to CGCCACCG, the “PBM E-score” value is -0.177. For CAAATCCA the value was 0.0838; for CGACAATA, 0.126. For AGATTGCC the value was -0.0485.

On to CATCCGTC, for which the “PBM E-score” value is 0.0296. Turning to GTGATACA, the “PBM E-score” value stood at 0.0685. Then TCGCATAA, with 0.21; and ATTAGCCC, with -0.0626. In the case of ATGCCTGA, the “PBM E-score” value was -0.0152.

On to GTCCTTCA, for which the “PBM E-score” value is -0.0408. For CTCCCAAG the value was -0.115. For the sequence AATACAGT, the “PBM E-score” value turned out to be 0.016. As for GACCTGCA, the “PBM E-score” value is -0.148. Consider ACATACAA, for which the “PBM E-score” value is 0.161. For AAAGGGTT the value was -0.134; for CGAACGTC, -0.122; for AAGTTTAA, 0.139.

As to CTCACGTA, the “PBM E-score” value was -0.101. With CACTCGGG, the “PBM E-score” value is -0.0754.

In the case of CCCCAGCG, the “PBM E-score” value was -0.299. Then TACCCCAA, with -0.15; and AAACCCTG, with -0.0096; and CATACAAA, with 0.246.

Turning to AACGAGAC, the “PBM E-score” value was -0.0496. For AAAATTAG the value was 0.179.

Turning to AGGTGCTG, the “PBM E-score” value worked out at 0.0932. With ATTGCGCG, the “PBM E-score” value was -0.123. Take ATCATTTA: the “PBM E-score” value was found to be 0.336. As for GGAAGCAA, the “PBM E-score” value is -0.0265.

On to GACACGGC, for which the “PBM E-score” value was -0.213. Take CATAAGGC: the “PBM E-score” value came to 0.0225. In the case of AAAGATAT, the “PBM E-score” value turned out to be 0.232.

On to ACCTAATC, for which the “PBM E-score” value turned out to be 0.161.
